Measured values from PubChem BioAssay AID686979 (National Center for Advancing Translational Sciences (NCATS), 2013).
“And” between values parts separate entries of the source, which are not always exact repeats. Identical values can stand only once. Hit rate of the full screen: of about 420,000 compounds, about 50,000 (12%) were called active. The shares of active, inactive and inconclusive entries below differ from those in the screen. Calls follow the shape of the dose curve; as a rule, active = well fitted inhibition curve with a large enough effect; inconclusive = small, poorly fitted or top-dose-only effect; inactive = flat fitted curve, though single readings scatter. Where the call is inconclusive, the potency comes from a doubtful curve fit.

Experiment: qHTS for Inhibitors of human tyrosyl-DNA phosphodiesterase 1 (TDP1): qHTS in cells in presence of CPT; also: nearly all actives have a fitted effect of over 55% in size
Settings: chicken DT40 Tdp1-/-;hTDP1 cells + 20 nM CPT, ATP luminescence, 48 h; activity change, negative = growth inhibition: at 46.2 µM (top of the series) unless noted
In short: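 Chicken DT40 Tdp1-/- cells complemented with human TDP1, 400 cells/well, exposed to compounds plus 20 nM camptothecin for at least 48 h at 37 C; viability read as ATP content by CellTiter-Glo luminescence.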
% is scaled to controls: 0 for no effect and ±100 for the full control effect; potency is read from the fitted curve at half-maximal effect; tags tell the direction and shape of the fitted curve.

Row | SMILES | Potency | activity change, negative = growth inhibition
1 | O=C(CSc1n[nH]c(-c2cccnc2)n1)OC1CCCCC1 | inconclusive: 29.1 µM [inhibitor, single point] | –
2 | Cc1ccc(CCNC(=O)CCn2c(=O)c3cccn3c3ccc(F)cc32)cc1 | inconclusive: 20.6 µM [inhibitor, single point] and inconclusive: 20.6 µM [inhibitor, partial curve] | –
3 | O=C(N/N=C1\CCCc2ccccc21)C(O)c1ccccc1 (stereo not drawn) | – | inactive: -16.9%
4 | COc1cccc(C(=O)CC(C(=O)O)c2ccc(Cl)cc2)c1 (stereo not drawn) | – | inactive: -2.29%
5 | CCN1C(=NCc2ccccc2)N[C@@H](c2ccccc2)[C@H](C(=O)OC)[C@H]1C | – | inconclusive: -31.9% [inhibitor]
6 | COc1ccccc1NS(=O)(=O)c1cc(NC(=O)C2CCCO2)ccc1C (stereo not drawn) | – | inactive: -8.26%
7 | OC(c1ccc(Cl)c(F)c1)c1ncc(-c2ccc(F)cc2)[nH]1 (stereo not drawn) | inconclusive: 10.3 µM [inhibitor, partial curve] | –
8 | Cc1cc2cc3c(N)[nH]nc3nc2cc1C | – | inactive: 1.04%
9 | Cc1c(C(=O)N2CCCC2)c(S(=O)(=O)NCC(C)c2ccccc2)c(C)n1C (stereo not drawn) | – | inactive: -3.17%
10 | Cc1cc(=O)n2nc(N3CCC(C(=O)Nc4ccc(C(C)C)cc4)CC3)sc2n1 | inconclusive: 29.1 µM [inhibitor, single point] | –
11 | COc1cc(NS(=O)(=O)c2ccc(-n3cccn3)cc2)cc(OC)c1 | active: 13 µM | –
12 | CS(=O)(=O)N1CCN(c2ccc(C(=O)NC34CC5CC(CC(C5)C3)C4)cc2[N+](=O)[O-])CC1 | active: 14.6 µM | –
13 | Oc1ccc(/C=N/NC(=S)Nc2cccnc2)cc1O | – | inactive: 17.2%
14 | O=C1CN(c2ccc(Cl)cc2)C2(CCCCC2)S1 | active: 29.1 µM | –
15 | COc1ccc(CCN(C)C(=O)c2oc3ccccc3c2C)cc1OC | inconclusive: 29.1 µM [inhibitor, single point] | –
16 | COc1ccc(NC(=O)c2cccc3ccccc23)cc1 | active: 18.4 µM | –
17 | CSc1nc(N)c2c3c(sc2n1)COC(C(C)C)C3 (stereo not drawn) | – | inactive: -3.99%
18 | CC(C)[C@H](NC(=O)N1CCn2c1nc1ccccc12)C(=O)NCCc1ccccc1 | inconclusive: 23.1 µM [inhibitor, single point] | –
19 | CN(C(=O)c1cc(S(=O)(=O)N2CCc3ccccc32)cn1C)C1CCCCC1 | active: 20.6 µM | –
20 | COc1ccc(-c2nc3c(Cl)cc(C(F)(F)F)cn3c2Cc2cccc(Cl)c2)cc1OC | inconclusive: 29.1 µM [inhibitor, single point] | –
21 | Cc1ccc(NC(=O)CSc2nc(-c3ccc(F)cc3)cc(C(F)(F)F)c2C#N)cc1 | inconclusive: 29.1 µM [inhibitor, single point] | –
22 | O=C(CCn1c(=O)c2cccn2c2ccc(F)cc21)NCc1ccccc1F | inconclusive: 29.1 µM [inhibitor, single point] | –
23 | c1ccc(-c2ccc(CNC3CC3)cc2)cc1 | inconclusive: 29.1 µM [inhibitor, single point] | –
24 | C[C@@H]1CN([C@@H](C)CO)C(=O)c2cc(NS(C)(=O)=O)ccc2O[C@H]1CN(C)Cc1ccc(Oc2ccccc2)cc1 | inconclusive: 6.51 µM [inhibitor, single point] | –
25 | CCOC(=O)CN1C(=O)S/C(=C/c2ccc(N3CCCCC3)o2)C1=O | – | inactive: -21.5%

Row | SMILES | Potency | activity change, negative = growth inhibition
26 | CCOc1ccc(C(=O)c2cn(CC(=O)Nc3cc(OC)cc(OC)c3)c3ccc(F)cc3c2=O)cc1 | inconclusive: 29.1 µM [inhibitor, single point] | –
27 | CCN(C(=O)CN1C(=O)S/C(=C\c2ccccc2Cl)C1=O)C1CCS(=O)(=O)C1 (stereo not drawn) | inconclusive: 18.4 µM [inhibitor, single point] | –
28 | COc1ccc(Br)cc1/C=N/N1CCN(Cc2ccccc2)CC1 | – | inconclusive: -14.4% [inhibitor]
29 | C=C[C@@H]1c2cc(C)ccc2N(S(=O)(=O)c2ccc(C)cc2)[C@H](c2ccccc2)C1(C#N)C#N | active: 7.94 µM | –
30 | O=C(c1cc(=O)[nH]c2ccccc12)N(Cc1nnc(-c2ccccc2Cl)o1)C1CC1 | active: 13 µM | –
31 | Clc1cc(NCc2ccccc2)ncn1 | inconclusive: 4.11 µM [inhibitor, full curve, poor fit] | –
32 | Cc1ccc(C)c(Nc2cc(C)nc3ccccc23)c1 | active: 14.6 µM | –
33 | CCOC(=O)N1CCN(S(=O)(=O)N2CCCC(C(=O)NCCCN3CC(C)CC(C)C3)C2)CC1 (stereo not drawn) | – | inactive: 0.494%
34 | Cc1cccc(OCc2nnc(SCC(=O)Nc3ccc(C)cc3C)o2)c1 | – | inactive: -20.9%
35 | O=C(NCC12CC3CC(CC(C3)C1)C2)c1cc2n(n1)C(C(F)(F)F)CC(c1ccco1)N2 (stereo not drawn) | active: 10.3 µM | –
36 | CNc1nc(SCc2ccccc2Cl)nc2c1CCCC2 | inconclusive: 29.1 µM [inhibitor, single point] | –
37 | Cc1ccccc1Cn1c(SCc2ccc(C(=O)NCc3cccs3)cc2)nc2ccncc21 | active: 20.6 µM | –
38 | O=C(c1ccc2c3n(nc2c1)-c1ccc(Cl)cc1CO3)N1CCOCC1 | inconclusive: 3.66 µM [inhibitor, full curve] | –
39 | COc1cc2cc(CCCOC(=O)c3ccc(C(F)(F)F)cc3)oc(=O)c2cc1OC | inconclusive: 20.6 µM [inhibitor, partial curve] | –
40 | COc1ccc(S(=O)(=O)N(Cc2nc(-c3cccc(C)c3)no2)C2CCCCC2)cc1 | active: 14.6 µM | –
41 | c1ccc2c(Oc3ccc4c(c3)OCO4)nncc2c1 | inconclusive: 29.1 µM [inhibitor, single point] | –
42 | Cc1ccccc1Cn1c(CCCNC(=O)C2CCCCC2)nc2ccccc21 | active: 18.4 µM | –
43 | COc1ccc(NC(=O)NC2(C(=O)N3CCCCCC3)CCCCC2)cc1 | inconclusive: 29.1 µM [inhibitor, single point] | –
44 | CCn1c2ccccc2c2cc(NC(=O)CC(C)=O)ccc21 | – | inactive: -1.57%
45 | COc1cc(Cl)c(C)cc1NC(=O)COc1ccccc1[N+](=O)[O-] | inconclusive: 23.1 µM [inhibitor, partial curve] | –
46 | Cc1noc(C)c1C(=O)Nc1sc(C)c(-c2ccccc2)c1C#N | inconclusive: 29.1 µM [inhibitor, single point] | –
47 | COc1ccc(CN2CC(C(=O)NCCc3ccc(C)cc3)CC2=O)cc1 (stereo not drawn) | inconclusive: 10.3 µM [inhibitor, partial curve, poor fit] | –
48 | Cc1ccc(NC(=O)c2ccc3c(=O)n4c(nc3c2)CCC4)cc1S(=O)(=O)N(C)C | – | inactive: -23.5%
49 | CCOC(=O)C1(Cc2cccc(OC)c2)CCN(Cc2ccc(OC)c(O)c2)CC1 | inconclusive: 16.4 µM [inhibitor, single point] | –
50 | CCCSCCCNC(=O)C1CCN(C(=O)c2cc3sccc3n2C)CC1 | active: 20.6 µM | –

Row | SMILES | Potency | activity change, negative = growth inhibition
51 | Cc1ccc(C2=N/C(=C\c3cccc(F)c3)C(=O)O2)cc1 | – | inactive: -19.5%
52 | c1ccc2nc(C3=NCCN3)ccc2c1 | – | inactive: -2.69%
53 | CCCCOc1ccc(C2c3c(-c4ccccc4O)n[nH]c3C(=O)N2Cc2ccncc2)cc1OC (stereo not drawn) | inconclusive: 29.1 µM [inhibitor, single point] | –
54 | Cc1ccc2oc(C(=O)N(CCO)Cc3ccccc3)c(C)c2c1 | inconclusive: 4.61 µM [inhibitor, single point] | –
55 | CC1(C)CC(=O)C=C(Nc2ccccn2)C1 | – | inactive: 0.691%
56 | O=C(Nc1nc(-c2ccc(Br)cc2)ns1)c1ccc(F)cc1 | inconclusive: 20.6 µM [inhibitor, single point] | –
57 | Cc1cccc(S(=O)(=O)NCCNS(=O)(=O)c2cccc(C)c2)c1 | – | inactive: -23.8%
58 | C[C@H](NC(=O)OC(C)(C)C)C(=O)c1ccco1 | – | inactive: -1.53%
59 | CCC(=O)Nc1cccc(NC(=O)c2ccc(C)c([N+](=O)[O-])c2)c1 | inconclusive: 16.4 µM [inhibitor, single point] | –
60 | Cc1cc(F)ccc1S(=O)(=O)Nc1ccccc1C(=O)NC1CCN(Cc2ccccc2)CC1 | inconclusive: 29.1 µM [inhibitor, single point] | –
61 | O=C(N/N=C/c1cnc2ccccc2n1)c1cccc(F)c1 | – | inactive: -6.34%
62 | Cc1cc(/C([O-])=C(/C(=S)Nc2ccc(F)cc2)[n+]2ccccc2)c(C)n1Cc1ccccc1Cl | active: 20.6 µM | –
63 | CCn1c2ccccc2c2cc(NC(=O)CSc3nnc(-c4ccccc4OC)n3N)ccc21 | inconclusive: 12.6 µM [inhibitor, single point] | –
64 | CCOc1ccccc1NC(=O)COC(=O)CN(C)S(=O)(=O)c1ccc(C)cc1 | inconclusive: 18.4 µM [inhibitor, single point] | –
65 | CCCCc1ccc(S(=O)(=O)NC(=O)C2(C)CCN2C(=O)c2ccccc2)cc1 (stereo not drawn) | – | inactive: -29.2%
66 | COC(=O)Nc1nnc(Cc2ccc(OC)cc2)s1 | – | inactive: -0.762%
67 | CCC1CCCCN1S(=O)(=O)c1ccc(NC(=O)c2cc(=O)c3ccccc3o2)cc1 (stereo not drawn) | active: 3.26 µM | –
68 | C#CCOCCOCCOCCNc1nc(N2CCN(C(=O)[C@H]([C@@H](C)O)n3cc(CCCCN)nn3)CC2)nc(N2CCN(C(=O)[C@H](C)n3cc(CCC(=O)O)nn3)CC2)n1 | inconclusive: 5.17 µM [inhibitor, single point] | –
69 | O=[N+]([O-])c1ccc(N/N=C/c2cccc(O)c2)cc1 | inconclusive: 29.1 µM [inhibitor, single point] | –
70 | O=C(NC1CC1)c1ccc(-c2ccc3nccn3c2)cc1 | – | inconclusive: -32.3% [inhibitor]
71 | CCN(CCCNC(=O)c1cc2c(=O)[nH]c3ccccc3c2s1)c1ccccc1 | inconclusive: 29.1 µM [inhibitor, single point] | –
72 | CCOC(=O)c1sc(NC(=O)CSc2nc(C)cc(-c3ccccc3)n2)c(C#N)c1C | – | inactive: 1.06%
73 | CC1=Nc2cc(C(=O)N3CCCC3)ccc2Sc2c(C)ccc(C)c21 | inconclusive: 29.1 µM [inhibitor, single point] | –
